Measurements taken from publication PMC12136788.
Some of the results follow.

B1: chr6:151351738:151351839:+|CDS|ENSG00000131016|msi1|total|mutant (ssRNA)
RNA: GGGAGUUCUACAGUCCGACGAUCGGUGGUGGGGCAGACCACCCCAGAAAGCUUUGAAAAAGCUCCUCAAGUCACAGAGAGCACCGAGUCCAGUGAGCUUGUAACCACUUGUCAAGCCGAAACCUCCGCUGGGGUAAAAUCACACAACAGAGGAUUGAGCAUCA
B2: chr15:76949589:76949706:+|3pUTR|ENSG00000117906|msi1_unk|total|mutant (ssRNA)
RNA: GGGAGUUCUACAGUCCGACGAUCAUAAAUUUUUGUUUUUGUUCUAAGCCGAUUUAAUUUGGGAACUGACAGGACAAUGUUUUCCGGUUCCGCAUUUUGUUUAAAAACCUUUAAAGAAACCUUCCGAAGGACUCCGACCUCACACAACAGAGGAUUGAGCAUCA
B3: chr12:101746137:101746238:-|3pUTR|ENSG00000111670|msi1|FALSE|unique (ssRNA)
RNA: GGGAGUUCUACAGUCCGACGAUCGGUUAGUAAAUUAUUGCAGGCCACCUGUGUCUUUGUCAUACAUUCUUCUUGCUGUUGUUUAGUUUGUUUUUUUUCAAACAACCCUCUAAAAAUGUAAAAACCAUGUUUAGCUUGCAGCUGCAACAGAGGAUUGAGCAUCA
B4: chr10:72011937:72012038:+|3pUTR|ENSG00000122863|msi1|FALSE|unique (ssRNA)
RNA: GGGAGUUCUACAGUCCGACGAUCCAUACACCGCAGGUGGUCACCGAGUUAUUUUCCAAAAGCUGAGGAACAUAAAGCAAAUUUAGGCUUUUGUCCUUCUGCAAUACAUGCACUUGAAAAUAAACAGAAAAGAGAUGUUUAAUACAACAGAGGAUUGAGCAUCA
B5: chr4:57023444:57023561:+|CDS|ENSG00000047315|unk|total|mutant (ssRNA)
RNA: GGGAGUUCUACAGUCCGACGAUCGAAUUGGAGAGCACCAACCGACGCUAUACCAAGAGAGACUGCCGCACUUUUCUCAGAACCCGCGAGACGGGCAUUGUGGAUCAGGUUAUGGUAACUCUCAAUCAGGAAGGAUAUAAAUUUCAACAGAGGAUUGAGCAUCA
B6: chr19:41261474:41261596:+|3pUTR|ENSG00000167601|msi1|total|mutant (ssRNA)
RNA: GGGAGUUCUACAGUCCGACGAUCUCUAAAGGUCCACAGGUCCCGACUAUCCGGUGCAAUUUCAAGGUUCUAACCCUAUACUGCCGUAUUCUUUGGGGUGCCCCUCUCCUUCUCCGCUAUCAUUGCUUCCUCCUCCCCAACUGUCAACAGAGGAUUGAGCAUCA
B7: chr3:49657245:49657349:+|CDS|ENSG00000164061|unk|total|mutant (ssRNA)
RNA: GGGAGUUCUACAGUCCGACGAUCCAGCCGCCGUGGCAUCAAGAAGCGGCACUCCAUGCCACGCCUGCGGGAUGCCUGUGAGCCCGAGUCUGGGACUGAGCCCUGUGUGGUCAGGAGGAUUGCCGACAGCAGCGUGCAGACAGACAACAGAGGAUUGAGCAUCA
B8: ENSG00000198589:be:win_2251|CDS|ENSG00000198589|bound_else_gene|NA|bound_elsewhere_windowed (ssRNA)
RNA: GGGAGUUCUACAGUCCGACGAUCGCCCCAAAGAGGAAAGCAGAAGUCAUGCUUGGACAUGGAUUGUUUUCAUUGCUAGCUGAAAGGCUCAUGCUUCAGACAAAUUUAAUCACAAUGACCACAUAUAAUGUGCUGUUUGAGAUUCAACAGAGGAUUGAGCAUCA
B9: ENSG00000107863:be:win_3001|CDS|ENSG00000107863|bound_else_gene|NA|bound_elsewhere_windowed (ssRNA)
RNA: GGGAGUUCUACAGUCCGACGAUCAGUGAGACCAAGAGGAAAAAUGUGUUUCGACUCACCACGUCCGACUGUGAAUGCCUGUUUCAGGCUGAAGACAGAGAUGAUAUGCUAGCUUGGAUCAAGACGAUCCAGGAGAGCAGCAACCAACAGAGGAUUGAGCAUCA
B10: chr22:36281740:36281783:-|3pUTR|ENSG00000100345|msi1_unk|FALSE|overlapping (ssRNA)
RNA: GGGAGUUCUACAGUCCGACGAUCUCUGACAGCCAGAGCGUUAGAGGGGCCAGCGGCCCUCCCAGGCGAUCUUGUGUCUACUCUAGGACUGGGCCCGAGGGUGGUUUACCUGCACCGUUGACUCAGUAUAGUUUAAAAAUCUGCCAACAGAGGAUUGAGCAUCA
B11: chr3:154276180:154276282:-|CDS|ENSG00000174953|unk|FALSE|unique (ssRNA)
RNA: GGGAGUUCUACAGUCCGACGAUCUCAUCCUGUAGACUGGAAUGACACUAAAUCCAGAGACUGUGCAGUACUGUCAGCUAUUAUAGACUUGAUCAAAACACAGGAAAAGGCAACUCCCAGGAACUUUCCGCCACGAUUCCAGGACAACAGAGGAUUGAGCAUCA
B12: chr7:99705035:99705499:-|three_prime_utr|ENSG00000160870|control|control|control (ssRNA)
RNA: GGGAGUUCUACAGUCCGACGAUCGUUUGCUCUUUAAGAAAGCUGUGCCCCAGAACACCAGAGACCUCAAAUUACUUUACAAAUAGAACCCUGAAAUGAAGACGGGCUUCAUCCAAUGUGCUGCAUAAAUAAUCAGGGAUUCUGCAACAGAGGAUUGAGCAUCA
B13: ENSG00000107863:be:win_6151|3pUTR|ENSG00000107863|bound_else_gene|NA|bound_elsewhere_windowed (ssRNA)
RNA: GGGAGUUCUACAGUCCGACGAUCAGAAAAUCGCUGGCAUCAGUGUGCAGCAAAUUUGUUCUUUUGGUUUCAUCACUAACAAAAGUGCCUCAUCAUAAAAAUACAGUUGGUUUUUAGGGUGCCAUAUUGUUAAAAUUAGAUAACCAACAGAGGAUUGAGCAUCA
B14: ENSG00000120693:stop:overlap|stop_codon|ENSG00000120693|stop_codon|NA|stop_codon (ssRNA)
RNA: GGGAGUUCUACAGUCCGACGAUCGCAUUAACCCUUACCACUACCGCCGGGUGGAGACUCCAGGUGACUUUGCGGUGAUCCUCUAGGAGCUUUUGGAAUAUUCCAGUUAUCCCGCAGUGUUUGAAAUUCAAGAUGGAAAGACUACAACAGAGGAUUGAGCAUCA
B15: chr12:76025442:76025543:-|3pUTR|ENSG00000139289|msi1|FALSE|unique (ssRNA)
RNA: GGGAGUUCUACAGUCCGACGAUCAUACACCAUCACAUUCAUGAAUUUUUUAGCAUGGUCAGAACUUGUGUAAAUAUGUCUCUUAGAUGAUUUUGGGGAGAUGUGAUUUAUUUUUCAUAUUUUCAAAAUGCAUUUCAUUUCAAACAACAGAGGAUUGAGCAUCA
B16: chr1:25360731:25360844:+|3pUTR|ENSG00000183726|unk|FALSE|unique (ssRNA)
RNA: GGGAGUUCUACAGUCCGACGAUCUUUUUUACUGCUCACUCCCAACCUUUUGUAAUGCCAUUUUCUAAACUUAUUUCUGAGUGUAGUCUCAGCUUAAAGUUGUGUAAUACUAAAAUCACGAGAACACCUAAACAACAACCAAAACAACAGAGGAUUGAGCAUCA
B17: chr1:92323927:92324037:+|CDS|ENSG00000122484|unk|FALSE|unique (ssRNA)
RNA: GGGAGUUCUACAGUCCGACGAUCAGUGCAGAGCAUUUUAAGAGAAAAUUUGCCAAAUCAAACCAAGUGUCUAGGUCAGUGUCUAGUUCAGUGCAGGUGUGUCCUGAAGUUGGAAAGAGAAACUUACUUAAAGUUUUGAAGGAGCAACAGAGGAUUGAGCAUCA
B18: ENSG00000165244:stop:overlap|stop_codon|ENSG00000165244|stop_codon|NA|stop_codon (ssRNA)
RNA: GGGAGUUCUACAGUCCGACGAUCUGCAUGGAGCCCUCGCGCUCAUAGAGCUUGCCAACCUGACUGGGGCGCCACUCCGACAGUAGCUUGGACACUGACUCUUCCACUGUACAAAAGUACUGCCCAGCAUACUUAAAAAGUAGACAACAGAGGAUUGAGCAUCA
B19: chr6:52501983:52502084:-|3pUTR|ENSG00000065308|msi1|FALSE|unique (ssRNA)
RNA: GGGAGUUCUACAGUCCGACGAUCGGCCGCCCUUGUUGAGUGUUCUUUGGAAUUGUCGUUUUUUGAGCACAACUACAGCAUUUUAGACUGCAUGAAACCAUGACUGACUGAGAGUCACUCUCUGGGUAGAUGAUAGGCGCCUUUCAACAGAGGAUUGAGCAUCA
B20: chr12:442458:442559:+|3pUTR|ENSG00000120647|unk|FALSE|unique (ssRNA)
RNA: GGGAGUUCUACAGUCCGACGAUCCCUGAGCAGAGCCUGAAUUACGUUUUUGGGCAAUUUCAUGGUGUUUCACCAGAGGGCGCUAGAGACUCAAACGAAAUGUCCAUCUGGAAAGAUUCGGGAGACACUUUGCCGAGGGGAUGACAACAGAGGAUUGAGCAUCA
B21: chr2:42282796:42282970:+|CDS|ENSG00000143924|unk|total|mutant (ssRNA)
RNA: GGGAGUUCUACAGUCCGACGAUCAUAUGGUUAUCGAGGAAAGGACUGCCGAGCUAAUGUUUACCUUCUUCCGACCGGGAAAACCGUUUAUUUCAUUGCAUCAGCCGCCGUACUAUUUAAUUAUGAGGAGAGAACUCAGCGACACAACAGAGGAUUGAGCAUCA
B22: chr16:21655520:21655610:+|3pUTR|ENSG00000197006|msi1_unk|total|mutant (ssRNA)
RNA: GGGAGUUCUACAGUCCGACGAUCUCUGUGUUCACAAUUACGUGAAGGGAGGACCCUUGGGGACCGCCAUUCUAAAUAUCAUGCCGGAAUUUAAAAAGCCAAAAUACUAAUUAUUUCUUUGCCGUGUGUAAAGGAAUGUUUUUACAACAGAGGAUUGAGCAUCA

Molecular target: MSI1 full-length (mouse, UniProt Q61474 1-362)
UniProt Q61474, sequence (Q61474 whole entry): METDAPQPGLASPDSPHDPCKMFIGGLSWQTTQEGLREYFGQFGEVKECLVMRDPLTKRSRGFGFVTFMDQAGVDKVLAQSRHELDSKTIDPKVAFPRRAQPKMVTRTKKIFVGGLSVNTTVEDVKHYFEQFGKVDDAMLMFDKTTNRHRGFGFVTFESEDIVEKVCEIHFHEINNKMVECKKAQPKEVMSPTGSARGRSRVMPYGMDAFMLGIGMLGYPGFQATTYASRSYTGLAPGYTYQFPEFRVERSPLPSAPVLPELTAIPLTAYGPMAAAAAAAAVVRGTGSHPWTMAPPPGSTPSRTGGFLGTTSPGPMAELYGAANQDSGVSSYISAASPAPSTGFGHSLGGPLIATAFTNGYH
Assay: nsRBNS (natural sequence RNA bind-n-seq); RBNS binding buffer (assumed for nsRBNS): 25 mM Tris pH 7.5, 150 mM KCl, 3 mM MgCl2, 0.01% Triton X-100, 500 ug/ml BSA, 20 U/ml SUPERase-In, 4 C; UNK is unkempt and MSI1 is Musashi-1; names of the RNAs are library labels; protein concentration not given here; high values mean tight binding

Row | Binder | binding signal [enrichment R]
1 | B1 | 0.303
2 | B2 | 0.378
3 | B3 | 0.915
4 | B4 | 0.511
5 | B5 | 0.382
6 | B6 | 0.848
7 | B7 | 0.43
8 | B8 | 0.274
9 | B9 | 0.356
10 | B10 | 0.774
11 | B11 | 0.741
12 | B12 | 0.529
13 | B13 | 0.809
14 | B14 | 3.03
15 | B15 | 0.954
16 | B16 | 1.01
17 | B17 | 0.428
18 | B18 | 0.91
19 | B19 | 0.461
20 | B20 | 0.338
21 | B21 | 0.813
22 | B22 | 0.282
